Read-outs that look alike come from different tables or passages of the source. No constants are given. Whether binding was seen depends on the method and setting. Binding seen in cells or lysates may run through a third protein. Some entries that bind do so weakly or less than the wild type. For part of these data: Where a sequence is shown, tags or fusion partners need not be part of it.
T1: 3MYC-SENP2 (UniProt Q9HC62)
T1 sequence: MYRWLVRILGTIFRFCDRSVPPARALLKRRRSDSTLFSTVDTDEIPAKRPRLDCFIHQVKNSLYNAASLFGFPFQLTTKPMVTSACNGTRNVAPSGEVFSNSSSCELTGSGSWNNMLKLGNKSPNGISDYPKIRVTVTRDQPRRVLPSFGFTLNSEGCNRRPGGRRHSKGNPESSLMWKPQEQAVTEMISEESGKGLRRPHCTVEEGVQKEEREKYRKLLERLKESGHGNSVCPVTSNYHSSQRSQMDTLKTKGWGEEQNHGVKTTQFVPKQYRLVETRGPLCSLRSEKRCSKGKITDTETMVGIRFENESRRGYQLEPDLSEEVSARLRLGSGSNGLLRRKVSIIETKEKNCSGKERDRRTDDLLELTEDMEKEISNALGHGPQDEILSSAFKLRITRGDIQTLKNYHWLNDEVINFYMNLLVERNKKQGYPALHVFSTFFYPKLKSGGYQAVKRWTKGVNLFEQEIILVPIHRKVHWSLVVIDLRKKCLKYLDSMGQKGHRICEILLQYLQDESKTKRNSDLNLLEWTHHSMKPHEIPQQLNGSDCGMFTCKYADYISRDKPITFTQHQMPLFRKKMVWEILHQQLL

Chains of the proteins cited; added tags and fusions are not shown. Lines headed by an entry give the natural chain unless they say otherwise; changes in a name come on top. A line that says so, or that is headed by a name, gives the form on record, which may keep a tag or linker.
UniProt O75928: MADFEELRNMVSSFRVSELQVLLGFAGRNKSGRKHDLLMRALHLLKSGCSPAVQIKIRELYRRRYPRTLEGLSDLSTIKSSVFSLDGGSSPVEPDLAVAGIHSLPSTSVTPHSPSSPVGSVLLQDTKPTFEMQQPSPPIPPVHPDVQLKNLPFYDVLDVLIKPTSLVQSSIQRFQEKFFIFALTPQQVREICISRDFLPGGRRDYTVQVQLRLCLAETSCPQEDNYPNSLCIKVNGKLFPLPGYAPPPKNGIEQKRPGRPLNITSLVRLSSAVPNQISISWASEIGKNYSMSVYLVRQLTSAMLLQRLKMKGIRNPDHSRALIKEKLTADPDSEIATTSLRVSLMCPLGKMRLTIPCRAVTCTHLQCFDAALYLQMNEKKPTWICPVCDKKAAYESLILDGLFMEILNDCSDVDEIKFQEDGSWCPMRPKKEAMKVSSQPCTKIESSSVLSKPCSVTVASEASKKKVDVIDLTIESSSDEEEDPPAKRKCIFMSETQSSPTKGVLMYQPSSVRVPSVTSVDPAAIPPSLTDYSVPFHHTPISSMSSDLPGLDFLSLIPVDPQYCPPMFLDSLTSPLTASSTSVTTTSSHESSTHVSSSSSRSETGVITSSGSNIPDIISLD
3MYC-PIAS2α (O75928-2, form named): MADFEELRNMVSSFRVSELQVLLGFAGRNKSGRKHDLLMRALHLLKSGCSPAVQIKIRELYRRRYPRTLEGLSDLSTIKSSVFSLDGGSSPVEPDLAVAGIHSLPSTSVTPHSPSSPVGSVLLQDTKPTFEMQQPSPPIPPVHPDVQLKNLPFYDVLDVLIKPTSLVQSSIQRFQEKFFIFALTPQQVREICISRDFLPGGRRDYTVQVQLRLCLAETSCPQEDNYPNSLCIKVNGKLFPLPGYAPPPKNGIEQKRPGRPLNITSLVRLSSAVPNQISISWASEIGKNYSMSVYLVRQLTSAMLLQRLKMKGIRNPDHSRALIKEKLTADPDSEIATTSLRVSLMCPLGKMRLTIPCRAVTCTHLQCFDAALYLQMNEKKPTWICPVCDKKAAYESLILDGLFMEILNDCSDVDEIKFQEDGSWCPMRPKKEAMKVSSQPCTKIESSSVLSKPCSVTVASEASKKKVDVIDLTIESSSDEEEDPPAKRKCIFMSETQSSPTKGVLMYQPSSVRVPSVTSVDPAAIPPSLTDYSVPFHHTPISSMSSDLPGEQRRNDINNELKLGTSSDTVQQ
UniProt Q9BQ15: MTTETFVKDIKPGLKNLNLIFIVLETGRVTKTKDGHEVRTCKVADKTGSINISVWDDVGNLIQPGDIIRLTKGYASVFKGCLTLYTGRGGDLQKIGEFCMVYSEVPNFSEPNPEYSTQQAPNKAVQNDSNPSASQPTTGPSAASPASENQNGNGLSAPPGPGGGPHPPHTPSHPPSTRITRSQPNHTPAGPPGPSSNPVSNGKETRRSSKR
UniProt O75925: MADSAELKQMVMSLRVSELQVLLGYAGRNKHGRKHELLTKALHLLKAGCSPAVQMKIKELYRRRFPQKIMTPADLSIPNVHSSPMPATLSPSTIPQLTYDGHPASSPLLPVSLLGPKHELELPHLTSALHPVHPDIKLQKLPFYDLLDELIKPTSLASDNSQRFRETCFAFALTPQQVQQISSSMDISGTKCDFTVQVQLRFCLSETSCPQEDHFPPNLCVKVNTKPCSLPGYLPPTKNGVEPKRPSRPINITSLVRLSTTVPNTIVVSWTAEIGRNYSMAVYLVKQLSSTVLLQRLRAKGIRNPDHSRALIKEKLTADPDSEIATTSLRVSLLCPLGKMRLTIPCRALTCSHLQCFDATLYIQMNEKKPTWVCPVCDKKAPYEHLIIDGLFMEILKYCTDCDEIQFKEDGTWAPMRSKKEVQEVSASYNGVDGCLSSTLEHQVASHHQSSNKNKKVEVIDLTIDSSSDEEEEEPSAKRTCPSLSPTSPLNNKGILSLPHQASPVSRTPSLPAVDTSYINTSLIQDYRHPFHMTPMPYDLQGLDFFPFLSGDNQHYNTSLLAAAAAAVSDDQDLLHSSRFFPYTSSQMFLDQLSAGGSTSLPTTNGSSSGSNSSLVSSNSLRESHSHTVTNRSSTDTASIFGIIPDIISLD
UniProt Q9H4L4: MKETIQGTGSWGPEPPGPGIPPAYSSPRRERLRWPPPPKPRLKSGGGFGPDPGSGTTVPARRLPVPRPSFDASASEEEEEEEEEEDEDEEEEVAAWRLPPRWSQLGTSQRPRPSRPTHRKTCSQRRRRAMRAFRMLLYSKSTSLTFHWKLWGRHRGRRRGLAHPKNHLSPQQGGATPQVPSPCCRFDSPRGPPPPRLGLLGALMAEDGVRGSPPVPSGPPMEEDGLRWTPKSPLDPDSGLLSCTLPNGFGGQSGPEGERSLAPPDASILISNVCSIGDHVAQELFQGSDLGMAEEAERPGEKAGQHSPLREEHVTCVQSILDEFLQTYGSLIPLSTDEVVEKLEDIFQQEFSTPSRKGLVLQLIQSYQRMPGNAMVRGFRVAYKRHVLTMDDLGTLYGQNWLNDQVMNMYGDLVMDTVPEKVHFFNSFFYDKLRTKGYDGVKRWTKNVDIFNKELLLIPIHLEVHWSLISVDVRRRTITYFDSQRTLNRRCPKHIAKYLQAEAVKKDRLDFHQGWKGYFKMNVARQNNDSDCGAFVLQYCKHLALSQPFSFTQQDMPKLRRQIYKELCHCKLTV

B1: 3MYC-SENP2 (enzyme, UniProt Q9HC62 1-589)
chain: T1 sequence
B2: PIAS3 (enzyme, UniProt Q9Y6X2 1-628)
chain: MAELGELKHMVMSFRVSELQVLLGFAGRNKSGRKHELLAKALHLLKSSCAPSVQMKIKELYRRRFPRKTLGPSDLSLLSLPPGTSPVGSPGPLAPIPPTLLAPGTLLGPKREVDMHPPLPQPVHPDVTMKPLPFYEVYGELIRPTTLASTSSQRFEEAHFTFALTPQQVQQILTSREVLPGAKCDYTIQVQLRFCLCETSCPQEDYFPPNLFVKVNGKLCPLPGYLPPTKNGAEPKRPSRPINITPLARLSATVPNTIVVNWSSEFGRNYSLSVYLVRQLTAGTLLQKLRAKGIRNPDHSRALIKEKLTADPDSEVATTSLRVSLMCPLGKMRLTVPCRALTCAHLQSFDAALYLQMNEKKPTWTCPVCDKKAPYESLIIDGLFMEILSSCSDCDEIQFMEDGSWCPMKPKKEASEVCPPPGYGLDGLQYSPVQGGDPSENKKKVEVIDLTIESSSDEEDLPPTKKHCSVTSAAIPALPGSKGVLTSGHQPSSVLRSPAMGTLGGDFLSSLPLHEYPPAFPLGADIQGLDLFSFLQTESQHYGPSVITSLDEQDALGHFFQYRGTPSHFLGPLAPTLGSSHCSATPAPPPGRVSSIVAPGGALREGHGGPLPSGPSLTGCRSDIISLD
B3: PIAS4 (enzyme, UniProt Q8N2W9 1-510)
chain: MAAELVEAKNMVMSFRVSDLQMLLGFVGRSKSGLKHELVTRALQLVQFDCSPELFKKIKELYETRYAKKNSEPAPQPHRPLDPLTMHSTYDRAGAVPRTPLAGPNIDYPVLYGKYLNGLGRLPAKTLKPEVRLVKLPFFNMLDELLKPTELVPQNNEKLQESPCIFALTPRQVELIRNSRELQPGVKAVQVVLRICYSDTSCPQEDQYPPNIAVKVNHSYCSVPGYYPSNKPGVEPKRPCRPINLTHLMYLSSATNRITVTWGNYGKSYSVALYLVRQLTSSELLQRLKTIGVKHPELCKALVKEKLRLDPDSEIATTGVRVSLICPLVKMRLSVPCRAETCAHLQCFDAVFYLQMNEKKPTWMCPVCDKPAPYDQLIIDGLLSKILSECEDADEIEYLVDGSWCPIRAEKERSCSPQGAILVLGPSDANGLLPAPSVNGSGALGSTGGGGPVGSMENGKPGADVVDLTLDSSSSSEDEEEEEEEEEDEDEEGPRPKRRCPFQKGLVPAC
B4: SENP5 (enzyme, UniProt Q96HI0 1-755)
chain: MKKQRKILWRKGIHLAFSEKWNTGFGGFKKFYFHQHLCILKAKLGRPVTWNRQLRHFQGRKKALQIQKTWIKDEPLCAKTKFNVATQNVSTLSSKVKRKDAKHFISSSKTLLRLQAEKLLSSAKNSDHEYCREKNLLKAVTDFPSNSALGQANGHRPRTDPQPSDFPMKFNGESQSPGESGTIVVTLNNHKRKGFCYGCCQGPEHHRNGGPLIPKKFQLNQHRRIKLSPLMMYEKLSMIRFRYRILRSQHFRTKSKVCKLRKAQRSWVQKVTGDHQETRRENGEGGSCSPFPSPEPKDPSCRHQPYFPDMDSSAVVKGTNSHVPDCHTKGSSFLGKELSLDEAFPDQQNGSATNAWDQSSCSSPKWECTELIHDIPLPEHRSNTMFISETEREIMTLGQENQTSSVSDDRVKLSVSGADTSVSSVDGPVSQKAVQNENSYQMEEDGSLKQSILSSELLDHPYCKSPLEAPLVCSGLKLENQVGGGKNSQKASPVDDEQLSVCLSGFLDEVMKKYGSLVPLSEKEVLGRLKDVFNEDFSNRKPFINREITNYRARHQKCNFRIFYNKHMLDMDDLATLDGQNWLNDQVINMYGELIMDAVPDKVHFFNSFFHRQLVTKGYNGVKRWTKKVDLFKKSLLLIPIHLEVHWSLITVTLSNRIISFYDSQGIHFKFCVENIRKYLLTEAREKNRPEFLQGWQTAVTKCIPQQKNDSDCGVFVLQYCKCLALEQPFQFSQEDMPRVRKRIYKELCECRLMD
B5: SENP6 (enzyme, UniProt Q9GZR1 1-1112)
chain: MAAGKSGGSAGEITFLEALARSESKRDGGFKNNWSFDHEEESEGDTDKDGTNLLSVDEDEDSETSKGKKLNRRSEIVANSSGEFILKTYVRRNKSESFKTLKGNPIGLNMLSNNKKLSENTQNTSLCSGTVVHGRRFHHAHAQIPVVKTAAQSSLDRKERKEYPPHVQKVEINPVRLSRLQGVERIMKKTEESESQVEPEIKRKVQQKRHCSTYQPTPPLSPASKKCLTHLEDLQRNCRQAITLNESTGPLLRTSIHQNSGGQKSQNTGLTTKKFYGNNVEKVPIDIIVNCDDSKHTYLQTNGKVILPGAKIPKITNLKERKTSLSDLNDPIILSSDDDDDNDRTNRRESISPQPADSACSSPAPSTGKVEAALNENTCRAERELRSIPEDSELNTVTLPRKARMKDQFGNSIINTPLKRRKVFSQEPPDALALSCQSSFDSVILNCRSIRVGTLFRLLIEPVIFCLDFIKIQLDEPDHDPVEIILNTSDLTKCEWCNVRKLPVVFLQAIPAVYQKLSIQLQMNKEDKVWNDCKGVNKLTNLEEQYIILIFQNGLDPPANMVFESIINEIGIKNNISNFFAKIPFEEANGRLVACTRTYEESIKGSCGQKENKIKTVSFESKIQLRSKQEFQFFDEEEETGENHTIFIGPVEKLIVYPPPPAKGGISVTNEDLHCLNEGEFLNDVIIDFYLKYLVLEKLKKEDADRIHIFSSFFYKRLNQRERRNHETTNLSIQQKRHGRVKTWTRHVDIFEKDFIFVPLNEAAHWFLAVVCFPGLEKPKYEPNPHYHENAVIQKCSTVEDSCISSSASEMESCSQNSSAKPVIKKMLNKKHCIAVIDSNPGQEESDPRYKRNICSVKYSVKKINHTASENEEFNKGESTSQKVADRTKSENGLQNESLSSTHHTDGLSKIRLNYSDESPEAGKMLEDELVDFSEDQDNQDDSSDDGFLADDNCSSEIGQWHLKPTICKQPCILLMDSLRGPSRSNVVKILREYLEVEWEVKKGSKRSFSKDVMKGSNPKVPQQNNFSDCGVYVLQYVESFFENPILSFELPMNLANWFPPPRMRTKREEIRNIILKLQEDQSKEKRKHKDTYSTEAPLGEGTEQYVNSISD
B6: SENP7 (enzyme, UniProt Q9BQF6 1-1050)
chain: MDKRKLGRRPSSSEIITEGKRKKSSSDLSEIRKMLNAKPEDVHVQSPLSKFRSSERWTLPLQWERSLRNKVISLDHKNKKHIRGCPVTSKSSPERQLKVMLTNVLWTDLGRKFRKTLPRNDANLCDANKVQSDSLPSTSVDSLETCQKLEPLRQSLNLSERIPRVILTNVLGTELGRKYIRTPPVTEGSLSDTDNLQSEQLSSSSDGSLESYQNLNPHKSCYLSERGSQRSKTVDDNSAKQTAHNKEKRRKDDGISLLISDTQPEDLNSGSRGCDHLEQESRNKDVKYSDSKVELTLISRKTKRRLRNNLPDSQYCTSLDKSTEQTKKQEDDSTISTEFEKPSENYHQDPKLPEEITTKPTKSDFTKLSSLNSQELTLSNATKSASAGSTTETVENSNSIDIVGISSLVEKDENELNTIEKPILRGHNEGNQSLISAEPIVVSSDEEGPVEHKSSEILKLQSKQDRETTNENESTSESALLELPLITCESVQMSSELCPYNPVMENISSIMPSNEMDLQLDFIFTSVYIGKIKGASKGCVTITKKYIKIPFQVSLNEISLLVDTTHLKRFGLWKSKDDNHSKRSHAILFFWVSSDYLQEIQTQLEHSVLSQQSKSSEFIFLELHNPVSQREELKLKDIMTEISIISGELELSYPLSWVQAFPLFQNLSSKESSFIHYYCVSTCSFPAGVAVAEEMKLKSVSQPSNTDAAKPTYTFLQKQSSGCYSLSITSNPDEEWREVRHTGLVQKLIVYPPPPTKGGLGVTNEDLECLEEGEFLNDVIIDFYLKYLILEKASDELVERSHIFSSFFYKCLTRKENNLTEDNPNLSMAQRRHKRVRTWTRHINIFNKDYIFVPVNESSHWYLAVICFPWLEEAVYEDFPQTVSQQSQAQQSQNDNKTIDNDLRTTSTLSLSAEDSQSTESNMSVPKKMCKRPCILILDSLKAASVQNTVQNLREYLEVEWEVKLKTHRQFSKTNMVDLCPKVPKQDNSSDCGVYLLQYVESFFKDPIVNFELPIHLEKWFPRHVIKTKREDIRELILKLHLQQQKGSSS

What was measured:
3MYC-PIAS2α = 3MYC-PIAS2α (UniProt O75928); experiment: co-IP; reciprocal IP: HEK293T co-transfected for 48 h, RIPA lysate, anti-MYC-agarose overnight at 4 °C, five washes with RIPA, western blot
3MYC-SENP2 = target: T1, 3MYC-SENP2; experiment: as above
[1] = target: FLAG-hSSB1 (human single-stranded DNA-binding protein 1), wild type (human) (UniProt Q9BQ15); experiment: co-IP; HEK293T co-transfected for 48 h, RIPA lysate, anti-FLAG-agarose overnight at 4 °C, five washes with RIPA, western blot
[2] = target: hSSB1, endogenous (human (endogenous in HEK293T)) (UniProt Q9BQ15); experiment: co-IP; endogenous proteins: HEK293T RIPA lysate, anti-hSSB1 antibody (IgG as control) 2 h at 4 °C, protein A/G-agarose overnight, four washes with RIPA, western blot
[3] = target: FLAG-hSSB1 (human single-stranded DNA-binding protein 1), wild type (human) (UniProt Q9BQ15); experiment: co-IP; HEK293T co-transfected for 48 h, RIPA lysate, anti-FLAG-agarose overnight at 4 °C, five washes with RIPA, western blot; remark: listed apart in the source

| Molecule | binding [3] | further results |
| --- | --- | --- |
| FLAG-hSSB1 (human single-stranded DNA-binding protein 1), wild type (from UniProt Q9BQ15 1-211) |  | binding (3MYC-PIAS2α): binds; binding (3MYC-SENP2): binds |
| 3MYC-PIAS2α (from UniProt O75928-2 1-572) (enzyme) |  | binding [1]: binds |
| PIAS1 (from UniProt O75925 1-651) (enzyme) |  | binding [1]: no binding |
| SENP3 (from UniProt Q9H4L4 1-574) (enzyme) |  | binding [1]: no binding |
| PIAS2, endogenous (from UniProt O75928 1-621) (enzyme) |  | binding [2]: binds |
| B1 | binds |  |
| B2 | no binding |  |
| B3 | no binding |  |
| B4 | no binding |  |
| B5 | no binding |  |
| B6 | no binding |  |
